Laboratory results published in article PMC4336329 (PLoS ONE, 2015).
Hit rate of the full screen: of about 310,000 compounds, about 2,200 (0.71%) showed an effect of 50% or more. The effect is printed as a negative number. Some of the results follow.

Molecular target: human ether-à-go-go-related gene (hERG) potassium channel (human, UniProt Q12809)
Test: primary screen, population patch clamp on CHO cells stably expressing hERG

Chain of human ether-à-go-go-related gene (hERG) potassium channel (Q12809 whole entry, looked up): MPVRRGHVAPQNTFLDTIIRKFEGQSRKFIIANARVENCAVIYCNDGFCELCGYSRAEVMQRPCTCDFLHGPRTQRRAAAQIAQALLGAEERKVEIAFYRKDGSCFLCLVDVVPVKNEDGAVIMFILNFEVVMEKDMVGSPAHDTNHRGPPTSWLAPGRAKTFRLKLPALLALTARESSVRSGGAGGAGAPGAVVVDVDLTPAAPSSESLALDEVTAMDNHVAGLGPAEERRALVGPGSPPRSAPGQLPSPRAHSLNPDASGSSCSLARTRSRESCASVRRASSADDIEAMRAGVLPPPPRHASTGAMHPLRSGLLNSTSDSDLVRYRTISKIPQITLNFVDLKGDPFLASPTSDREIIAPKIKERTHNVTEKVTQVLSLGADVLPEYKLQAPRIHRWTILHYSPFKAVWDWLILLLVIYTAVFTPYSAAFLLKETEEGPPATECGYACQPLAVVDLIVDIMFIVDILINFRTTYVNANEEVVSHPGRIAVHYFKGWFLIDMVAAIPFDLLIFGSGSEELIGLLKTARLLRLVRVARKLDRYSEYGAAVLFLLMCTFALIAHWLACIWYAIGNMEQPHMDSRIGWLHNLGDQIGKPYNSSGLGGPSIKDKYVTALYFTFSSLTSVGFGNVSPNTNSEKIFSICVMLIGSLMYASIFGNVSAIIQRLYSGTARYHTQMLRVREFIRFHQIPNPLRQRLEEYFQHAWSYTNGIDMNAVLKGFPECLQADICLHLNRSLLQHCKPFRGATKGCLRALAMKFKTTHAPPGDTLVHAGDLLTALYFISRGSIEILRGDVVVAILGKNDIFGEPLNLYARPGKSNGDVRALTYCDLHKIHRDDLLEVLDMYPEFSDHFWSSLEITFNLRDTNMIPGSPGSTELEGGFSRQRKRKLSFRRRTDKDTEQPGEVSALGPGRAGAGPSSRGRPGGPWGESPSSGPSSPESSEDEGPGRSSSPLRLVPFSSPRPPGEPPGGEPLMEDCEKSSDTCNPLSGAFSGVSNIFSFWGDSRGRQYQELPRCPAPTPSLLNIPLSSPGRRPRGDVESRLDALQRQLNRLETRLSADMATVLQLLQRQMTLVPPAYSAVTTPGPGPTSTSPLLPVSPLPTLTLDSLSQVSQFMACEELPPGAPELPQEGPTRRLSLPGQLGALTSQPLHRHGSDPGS

Compound | hERG current change (%, negative = inhibition) at 1uM
CN(C)CC(O)COc1ccc(-c2ccc(C#N)cc2)cc1 (stereo not shown) | -6.93%
CCOC(=O)c1csc(NC(=O)c2ccc(S(=O)(=O)N3CCCC3)cc2)n1 | 16.5%
CC(NC(=O)CN1CCN(c2cccc(Cl)c2)CC1)c1ccccc1 (stereo not shown) | 16.3%
CCC1CCC(N2CCN(c3ccc(F)cc3)CC2)CC1 (stereo not shown) | -2.92%
COc1cccc2cc(-c3ccnc(N)n3)oc12 | 6.49%
O=C(O)c1cc(S(=O)(=O)N2CCOCC2)ccc1N1CCOCC1 | 9.34%
CCN(CC)C(=O)Cn1c(C)c(/C=C/c2cc[n+](C)cc2)c2ccccc21.[I-] | 8.59%
CCn1c(CNC(=O)C23CC4CC(CC(C4)C2)C3)nnc1SCC(=O)Nc1nnc(C)s1 | 12%
CCc1ccc(NC(=O)CSc2nc(N)c(NC(=O)c3ccc(F)c(F)c3)c(=O)[nH]2)cc1 | 18.6%
O=C(O)CC1SC(=Nc2ccc(O)cc2)NC1=O (stereo not shown) | 7.03%
COc1ccc(OCCCC(=O)Nc2cccc([N+](=O)[O-])c2C)cc1 | 14.1%
Fc1ccc(CNc2ccccn2)cc1 | 7.98%
Cc1ccccc1NC(=O)CSc1nnc(C)c(=O)[nH]1 | 2.74%
N#CC1=C(N)NC(SCC(=O)c2ccccc2)=C(C#N)C12CCCC2 | -0.805%
Cc1cc(/C=C2\NC(=O)NC2=O)c(C)n1-c1cccnc1 | 11.4%
CCCc1ncc(C(O)c2cccc(OC)c2)n1C (stereo not shown) | 5.51%
O=C(NC(Nc1nc2ccc([N+](=O)[O-])cc2s1)(C(F)(F)F)C(F)(F)F)c1cccnc1 | -4.57%
COc1ccccc1S(=O)(=O)Cc1ccc(C(=O)NC(C)c2ccc3c(c2)OCCO3)o1 (stereo not shown) | 3.44%
COc1ccc(OC)c(N2C(=NC(=O)C3CCCCC3)SC3CS(=O)(=O)CC32)c1 (stereo not shown) | -1.02%
c1cncc(CNc2c3c(nc4nnnn24)CCCC3)c1 | 2.98%
COc1cc(/C=N/NC(=O)c2sc(N)c(C#N)c2C)ccc1O | -2.05%
Cc1ccc2cccc(OCCCOc3ccccc3F)c2n1.O=C(O)C(=O)O | 21.4%
CCOc1cc(-c2c(C)c(CC)nc(N)c2C#N)ccc1O | -8.01%
COc1ccc(/C=C/C(=O)Nc2ccncc2)cc1OC | 15.1%
CNC(=S)N/N=C/c1c(Cl)cccc1Cl | 9.97%
